# Data from PubChem BioAssay AID1460 (National Center for Advancing Translational Sciences (NCATS), 2008).
# Out of some 270,000 compounds screened, about 5,800 (2.1%) were called active. The inconclusive results got no clear call from the source; some entries with a clear call stand among them for comparison. Calls come from the whole dose curve; as a rule, active = well fitted inhibition curve with a large enough effect; inconclusive = small, poorly fitted or top-dose-only effect; inactive = flat fitted curve, though single readings scatter. Potencies of inconclusive entries are doubtful fits and often do not repeat.
# Target: Microtubule-associated protein tau (Homo sapiens) (UniProt P10636)
# Assay: qHTS for Inhibitors of Tau Fibril Formation, Thioflavin T Binding; note: nearly all actives have a fitted effect of over 55% in size
# Conditions: recombinant tau K18 P301L, heparin-induced fibrillization, ThT fluorescence; series mostly up to 57.4 µM; activity, negative = inhibition: at the top concentration
# In short: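 Using a mix of unlabeled (15 uM) and Alexa 594-labeled (0.24 uM) tau K18 P301L, heparin-triggered fibrillization over 6 hr at 37 C was scored by ThT fluorescence.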
# % is set by controls: 0 for no effect and ±100 for the full control effect; potency is the fitted concentration of half-maximal effect; tags give direction and shape of the fitted curve.
# UniProt P10636, sequence (P10636 whole entry, looked up): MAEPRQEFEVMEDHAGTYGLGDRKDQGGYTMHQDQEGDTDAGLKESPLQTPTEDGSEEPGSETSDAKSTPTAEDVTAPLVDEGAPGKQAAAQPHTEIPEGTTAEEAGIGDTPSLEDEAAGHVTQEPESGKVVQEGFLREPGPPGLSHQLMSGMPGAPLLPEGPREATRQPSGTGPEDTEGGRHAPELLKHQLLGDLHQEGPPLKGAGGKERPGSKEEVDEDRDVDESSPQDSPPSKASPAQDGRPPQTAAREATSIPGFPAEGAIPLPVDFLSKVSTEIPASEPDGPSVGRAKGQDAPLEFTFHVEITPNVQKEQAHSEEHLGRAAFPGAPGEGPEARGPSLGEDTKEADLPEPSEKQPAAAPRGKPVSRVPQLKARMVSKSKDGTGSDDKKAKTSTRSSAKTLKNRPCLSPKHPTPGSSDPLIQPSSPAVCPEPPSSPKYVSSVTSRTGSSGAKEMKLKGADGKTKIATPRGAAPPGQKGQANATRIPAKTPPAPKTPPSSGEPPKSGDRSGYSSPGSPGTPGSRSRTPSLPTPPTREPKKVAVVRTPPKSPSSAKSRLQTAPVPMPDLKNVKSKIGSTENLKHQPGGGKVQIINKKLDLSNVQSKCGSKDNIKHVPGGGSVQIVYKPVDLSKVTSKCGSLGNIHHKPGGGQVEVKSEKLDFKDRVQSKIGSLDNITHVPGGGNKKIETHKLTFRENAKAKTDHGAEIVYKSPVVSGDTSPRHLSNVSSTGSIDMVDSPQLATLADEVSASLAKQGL
SMILES,"activity, negative = inhibition",Potency
Cc1ccc(C(=O)OCC(=O)Nc2cc(F)ccc2F)cc1NC(=O)c1ccco1,inactive: -11.3%,–
O=C(CCC1N=C2c3ccccc3N=C(SCc3cccc(F)c3)N2C1=O)NCc1ccc(F)cc1 (centres undefined),inactive: -10.5%,–
COc1ccccc1N1C(=N)S/C(=C\c2ccc(-c3ccccc3C(=O)O)o2)C1=O,–,"inconclusive: 14.1 µM [inhibitor, partial curve]"
Cc1ccc2nc(Nc3nc(C)cc(C(F)(F)F)n3)nc(C)c2c1,–,"inconclusive: 22.4 µM [inhibitor, partial curve]"
CCOc1ccc(C2=C(C(=O)CC)Sc3nncn3N2C(=O)CC)cc1,–,active: 3.16 µM
Cc1ccc(S(=O)(=O)NCc2ccco2)cc1C,inactive: -5.76%,–
COC(=O)c1c(SC)nc2ccccc2c1OCc1ccc(C)cc1,–,"inconclusive: 12.6 µM [inhibitor, partial curve]"
CCc1ccccc1N1C(=O)N(CC(=O)c2ccc(Cl)cc2)c2ccccc2S1(=O)=O,inactive: 1.45%,–
N/N=C1\CCCc2c1[nH]c1ccc([N+](=O)[O-])cc21,–,"inconclusive: 14.1 µM [inhibitor, partial curve]"
Cn1c(=O)cc(SCC(=O)N2CCOCC2)c2ccc(Cl)cc21,inactive: 4.21%,–
O=C(N/N=C\c1ccc([N+](=O)[O-])o1)C1COc2ccccc2O1 (centres undefined),–,"inconclusive: 15.8 µM [inhibitor, partial curve]"
CC(C)OC(=O)c1c(NC(=O)c2ccco2)sc2c1CCCC2,inactive: -13%,–
Nc1cccc(-c2cc(-c3ccccc3)nc(-c3cccc(N)c3)n2)c1,–,"inconclusive: 4.47 µM [inhibitor, partial curve, poor fit]"
CN1CCN(C(=O)C(=O)Nc2c3c(nn2-c2cccc(Cl)c2)CSC3)CC1,inactive: -5.65%,–
COc1ccc(CCNC(=O)CSc2cn(CCNC(=O)c3ccccc3F)c3ccccc23)cc1OC,–,"inconclusive: 2 µM [inhibitor, partial curve]"
CCCCOC(=O)Cn1nnc2sc(-c3ccccc3)cc2c1=O,–,"inconclusive: 12.6 µM [inhibitor, partial curve, poor fit]"
CSc1nc(/C=C2\C=Nc3ccccc32)c(O)n1C,–,active: 11.2 µM
CCOC(=O)c1ccc(CC(=O)c2ccc(O)c(O)c2O)o1,–,active: 15.8 µM
N#C/C(=C/c1ccc(-c2ccccc2[N+](=O)[O-])o1)C(N)=O,inactive: -4.67%,–
CCOC(=O)C(NC(=O)Nc1ccc(O)cc1)(c1ccccc1)C(F)(F)F (centres undefined),–,"inconclusive: 25.1 µM [inhibitor, single point]"
COc1ccc2c(c1)C(c1ccc(C)o1)=NNC(c1ccccc1)=N2,–,"inconclusive: 35.5 µM [inhibitor, single point]"
C=CCn1c(-c2sc3nc(C)cc(C)c3c2N)n[nH]c1=S,–,"inconclusive: 31.6 µM [inhibitor, partial curve]"
CCc1cnc2c(c1SCC(=O)Nc1ccc(OC)c(OC)c1)c(=O)n(C)c(=O)n2C,inactive: 0.625%,–

SMILES,"activity, negative = inhibition",Potency
COC(=O)CCC(=O)OC1(C)C(=O)C=C2C=C(C3CC3)N(Cc3ccco3)C=C2C1=O (centres undefined),–,"inconclusive: 10 µM [inhibitor, partial curve]"
Clc1ccc(N=c2ssnc2Cl)cc1,–,active: 12.6 µM
Cc1ccc2nc(NC(=S)NC(=O)c3ccco3)sc2c1,–,"inconclusive: 1.78 µM [inhibitor, partial curve]"
COc1cc(C2CC(=O)N3CN(Cc4ccccc4)CSC3=C2C#N)ccc1OCc1ccccc1 (centres undefined),–,"inconclusive: 15.8 µM [inhibitor, partial curve]"
CCOC(=O)c1cnn(-c2nc(-c3ccccc3)cs2)c1C(F)(F)F,–,"inconclusive: 10 µM [inhibitor, partial curve]"
O=C(c1ccc([N+](=O)[O-])s1)N1CCN(c2ccccc2)CC1,–,"inconclusive: 14.1 µM [inhibitor, partial curve]"
COc1ccc(C(=O)Nc2cc(C(F)(F)F)ccc2Cl)cc1OC,–,"inconclusive: 8.91 µM [inhibitor, single point]"
COc1ccccc1OCCn1cc(/C=N/NC(N)=S)c2ccccc21,–,"inconclusive: 2.82 µM [inhibitor, full curve]"
Cc1ccc(C(=O)CSc2nnc(COc3cccc(C)c3)o2)cc1,–,"inconclusive: 7.08 µM [inhibitor, partial curve]"
O=C(NCc1ccc(Cl)cc1)c1ccc2oc(=O)n(Cc3ccccc3)c2c1,–,"inconclusive: 31.6 µM [inhibitor, single point]"
O=C(c1sc2cc(F)ccc2c1Cl)N1CCN(c2cccc(Cl)c2)CC1,inactive: -14.1%,–
CCCN1CCN(C(=O)c2cc(COc3ccc4ncccc4c3)on2)CC1,–,"inconclusive: 39.8 µM [inhibitor, partial curve]"
CCCCc1cc2c(cn1)=C(OC(=O)C1CCCC1)C(C)(OC(=O)CC)C(=O)C=2 (centres undefined),–,"inconclusive: 2.82 µM [inhibitor, single point]"
Cc1cc(C)c2[nH]c(C(=O)Nc3ccc4c(c3)OCO4)cc2c1,–,"inconclusive: 2.51 µM [inhibitor, full curve]"
O=C(N/N=C/c1ccc(N2CCCCC2)o1)C(O)(c1ccccc1)c1ccccc1,–,"inconclusive: 25.1 µM [inhibitor, single point]"
O=C1/C(=C/c2cccs2)COc2ccccc21,–,"inconclusive: 10 µM [inhibitor, partial curve]"
CCCn1c(C)nc2c(N3CCC(N4CCN(C)CC4)CC3)nc(C)nc21,inactive: -0.979%,–
CCn1cc(C(=O)N2CCc3ccccc32)c(=O)c2cc(S(=O)(=O)N3CC(C)CC(C)C3)ccc21 (centres undefined),–,"inconclusive: 20 µM [inhibitor, partial curve]"
O=C(Nc1cc2c(cc1Cl)OCCCO2)c1ccccc1,inactive: -11.8%,–
CCOC(=O)c1cnc2c(F)ccc(F)c2c1Sc1ccccc1,–,"inconclusive: 35.5 µM [inhibitor, partial curve]"
Cn1nnnc1SCC(=O)Nc1ccc(S(=O)(=O)N2CCOCC2)cc1,–,"inconclusive: 11.2 µM [inhibitor, partial curve]"
O=C(CCCSc1ccccc1)Nc1nc(-c2ccccn2)cs1,–,"inconclusive: 6.31 µM [inhibitor, full curve]"
CCOC(=O)C(C(=O)OCC)c1cc(Br)c2noc3c2c1C(=O)c1ccccc1-3,–,active: 1.12 µM

SMILES,"activity, negative = inhibition",Potency
CC(C)CCn1c(O)c(N=Nc2ccccn2)c2ccccc21,–,"inconclusive: 25.1 µM [inhibitor, partial curve]"
Cn1cc([N+](=O)[O-])c(C(=O)Nc2ccc(-c3nc4ccccc4[nH]3)cc2)n1,–,"inconclusive: 8.91 µM [inhibitor, partial curve]"
Cc1nc2c3ccccc3n(Cc3ccccc3F)c2s1,–,"inconclusive: 31.6 µM [inhibitor, partial curve]"
CN1C2=CC=CC=CC2=[N+](C)C12C=CC(=[N+]([O-])[O-])C=C2[N+](=O)[O-] (centres undefined),–,"inconclusive: 14.1 µM [inhibitor, partial curve]"
COc1ccccc1NC(c1cccnc1)c1ccc2cccnc2c1O (centres undefined),–,"inconclusive: 22.4 µM [inhibitor, partial curve]"
COc1ccc(NCc2cc3cc4c(cc3n(CC(=O)Nc3ccccc3)c2=O)OCO4)cc1,–,"inconclusive: 3.16 µM [inhibitor, partial curve, poor fit]"
N#CC1(c2nc3ccccc3[nH]2)CC1c1ccc2c(c1)OCO2 (centres undefined),–,"inconclusive: 8.91 µM [inhibitor, partial curve]"
COc1ccc(NC(=O)CSc2nc(-c3ccc(OC)c(OC)c3)[nH]c2-c2ccc(C)cc2)cc1,inactive: -11.3%,–
CC(C)C[C@H](N)c1nnc(S(=O)(=O)Cc2cccc(F)c2)o1,–,"inconclusive: 7.08 µM [inhibitor, partial curve]"
COc1ccc(NC(=O)NCc2c(-n3cccc3)sc3c2CCCC3)c(OC)c1,inactive: -3.04%,–
C=COC(=O)CSc1nc(-c2cccs2)ccc1C#N,–,"inconclusive: 8.91 µM [inhibitor, partial curve, poor fit]"
CCOc1ccc(CCNC(=O)CCCc2nnc3n(C)c(=O)c4sccc4n23)cc1OCC,inactive: -6.53%,–
COc1ccc(O)c(/C=C(\C#N)C(=O)Nc2cccnc2)c1,–,"inconclusive: 20 µM [inhibitor, partial curve]"
CSc1ccc(/C=C(\C(=O)O)c2ccc(S(=O)(=O)N3CCCCC3)s2)cc1,inactive: -16.2%,–
COC(=O)C1=C(C)N(c2ccc(OC)c(OC)c2)C(=O)/C1=C\c1ccco1,–,"inconclusive: 20 µM [inhibitor, partial curve]"
C1=Nc2c(Nc3ccccc3)ncnc2Oc2ccccc21,–,"inconclusive: 20 µM [inhibitor, partial curve]"
CCOc1ccc2nc(NC(=O)c3ccoc3C)sc2c1,inactive: -12.5%,–
Cc1ccc(SCCC(=O)Nc2ccc(Br)c(C)c2)cc1,–,"inconclusive: 12.6 µM [inhibitor, partial curve]"
O=C(CSc1nc(-c2ccccc2)c(-c2ccccc2)[nH]1)Nc1nccs1,–,"inconclusive: 10 µM [inhibitor, partial curve]"
CCn1c(O)c(N=NC(=O)c2ccc(CSc3nncn3C)cc2)c2ccccc21,–,"inconclusive: 28.2 µM [inhibitor, partial curve]"
COc1ccc(Cn2nnnc2C(c2ccc(N(C)C)cc2)N2CCC(C)CC2)cc1 (centres undefined),–,"inconclusive: 15.8 µM [inhibitor, partial curve]"
CN(CC(=O)OCC(N)=O)S(=O)(=O)c1ccc(Cl)cc1,inactive: 0.792%,–
N#Cc1ccc(-c2ccccc2)nc1SCC(=O)c1cc2ccccc2oc1=O,–,"inconclusive: 5.62 µM [inhibitor, partial curve]"
